# The campaign covered roughly 360,000 compounds. About 6,000 (1.7%) were called active. Inconclusive means that the source gave no clear call. Such entries were picked first, then a sample of the others. The call rests on the fitted dose curve; in most records, active means well fitted cell-killing curve with a large enough effect; inconclusive means small, poorly fitted or top-dose-only effect, or effect the other way; inactive means flat fitted curve, though single readings scatter. No potency is given beside an inconclusive call; the fits are too rough.
# Experiment: qHTS for induction of synthetic lethality in tumor cells producing 2HG: qHTS for the HT-1080-NT fibrosarcoma cell line;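 further: NT is the 2HG producing partner of a matched IDH1 knockdown line; nearly all actives have a fitted effect of over 55% in size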;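 on activity, negative = less viability: 0% = DMSO-treated cells and -100% = media-only wells without cells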
# Conditions: HT-1080-NT fibrosarcoma viability, CellTiter-Glo ATP luminescence, 48 h; activity, negative = less viability: at 46.1 µM (top of the series) unless noted
# How it was run: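 750 cells/well, RPMI + 5% FBS; 2 h settle, compound pin-transfer, 48 h at 37 degrees C. CellTiter-Glo 10 min RT, luminescence. Normalized to DMSO and media-only wells.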
# Potency means the concentration at half of the fitted maximal effect; tags describe the fitted curve by direction and shape.
SMILES,Potency,"activity, negative = less viability"
COc1ccccc1-c1cc(C(=O)Nc2cc(C)nn2-c2ccccc2)no1,"inconclusive [cytotoxic, single point]",
COc1ccc(-c2coc3c(C(=O)NCC(C)C)cccc23)c(C)c1,"inconclusive [cytotoxic, single point]",
CCC(C)Sc1ccc(-c2nc3ccc(C)cn3c2NCc2ccccc2)cc1OC (configuration not stated),"inconclusive [cytotoxic, single point]",
CN1CCN(C(=O)c2ccc3c(=O)n(Cc4ccc(Cl)cc4)c(=S)[nH]c3c2)CC1,"inconclusive [cytotoxic, single point]",
O=C(N[C@@H](Cc1ccccc1)C(=O)OCc1ccccc1)c1nc[nH]c1C(=O)NCc1ccccc1,"inconclusive [cytotoxic, single point]",
OC(COCc1ccc(Cl)cc1)CN1CCN(CC(O)COCc2ccc(Cl)cc2)CC1 (configuration not stated),"inconclusive [cytotoxic, partial curve]",
CCN(CC)CCCNC(=S)N1CCN(c2nc(-c3ccc(F)cc3)cs2)CC1,active: 20.6 µM,
COc1ccc(Nc2oc(-c3ccccc3Cl)nc2C#N)cc1,"inconclusive [cytotoxic, partial curve, poor fit]",
CC(NC(=O)CSC(=S)N1CCCC1)c1ccc(S(N)(=O)=O)cc1 (configuration not stated),,inactive: -12.4%
CC1(C(=O)Nc2cnc3ccccc3c2)CCN1C(=O)c1ccccc1CCc1ccccc1 (configuration not stated),"inconclusive [cytotoxic, partial curve]",
COc1ccc(NC(=O)N(C)[C@H]2C[C@H]3c4[nH]c5ccc(-c6ccc(OC)cc6)cc5c4CCN3C[C@H]2[C@H](C)O)cc1,active: 23.1 µM,
FC(F)(F)c1cccc(Sc2nc(-c3ccccc3)nnc2C(F)(F)F)c1,"inconclusive [cytotoxic, single point]",
O=S(=O)(c1ccccc1)N(CC(F)(F)F)c1ccc(C(O)(C(F)(F)F)C(F)(F)F)cc1,"inconclusive [cytotoxic, single point]",
N#Cc1cccc(N=Cc2c(O)ccc3ccccc23)c1,"inconclusive [cytotoxic, single point]",
O=C(CSc1ccc(Cl)cc1)N1CCC(c2nc3ccccc3s2)CC1,"inconclusive [cytotoxic, single point]",
Cc1ccc(S(=O)(=O)N2CCN(c3nc(-c4ccnnc4)nc4ccccc34)CC2)cc1,,inactive: 4.1%
N#Cc1c(N)nc2c(c1-c1ccco1)CCCCC2,"inconclusive [cytotoxic, partial curve, poor fit]",
O=C(C1CCN(S(=O)(=O)c2cccc3nsnc23)CC1)N1CCc2ccccc2C1,,inactive: -3.56%
CSc1nc(Sc2ccccc2Cl)c2ccccc2n1,"inconclusive [cytotoxic, single point]",
CC(=O)Nc1ccc(N(CC(O)Cn2c3ccccc3c3ccccc32)S(=O)(=O)c2ccc(C)cc2)cc1 (configuration not stated),"inconclusive [cytotoxic, partial curve]",
CCOc1cc(Br)cc(/C=N/NC(=O)c2cccnc2)c1O,"inconclusive [cytotoxic, partial curve, poor fit]",
O=C(CSC1CC(=O)N(CC(c2ccccc2)c2ccccc2)C1=O)Nc1ccc(Cl)cc1 (configuration not stated),"inconclusive [cytotoxic, single point]",
CCN1CCN(CCCNC(=O)c2ccc(/C=C3/Sc4ccccc4N(Cc4ccccc4F)C3=O)cc2)CC1,active: 18.4 µM,
S=C(N/N=C/c1ccccc1Cl)Nc1cccc(Cl)c1Cl,"inconclusive [cytotoxic, single point]",
O=[N+]([O-])c1ccc(/C=N\N2CCN(c3ccc(Cl)cc3)CC2)cc1,,inactive: 9.67%
O=Cc1cnc(N2CCOCC2)nc1,"inconclusive [rising, partial curve, poor fit]",
CC1=C(C)CS(=O)N(S(=O)(=O)c2ccccc2)C1 (configuration not stated),"inconclusive [cytotoxic, single point]",
